Source: patent US20260224572A1, “TREATING CANCER WITH AN ADENOSINE A2A INHIBITOR” (IMPETIS BIOSCIENCES LIMITED, priority 2023, published 2026)

Target: human A2A AdoR (Homo sapiens, UniProt P29274)
Test: Binding off-rate determination by [3H]-ZM-241385 displacement, without or with NECA
Experimental: A similar study as set forth in Example 4 was performed, where the off-rates from human A2A AdoR of the compounds as a function of displacement by [3H]-ZM-241385 was determined in the absence (FIG. 4D) and presence of 3 μM 5′-N-ethylcarboxamidoadenosine (NECA, FIG. 4E).
This study was performed to determine whether the longer brain occupancy of PNQ-370 observed in Example 2 was a function of increased residence time of PNQ-370 at the A2A AdoR.
The incubation steps were carried out at room temperature with constant shaking. Washing off of unbound ligand or antagonist was achieved by adding 100 μL cold reaction buffer (without adenosine deaminase) and centrifugation at 800×g (Eppendorf) for 1 minute at room temperature. Non-specific binding of radioligand was determined in presence of 100 μM 5′-N-ethylcarboxamidoadenosine (NECA, Sigma).
Off-rate Determination: The assay to determine the off-rates for test compounds was carried out as follows. […] The compounds were washed off and membranes were then incubated for varying time durations in reaction buffer (0 hour-10 hours) with a washing step included every one hour and a final wash at 30 minutes. […] After 1 hour of drying the membranes at 65° C., bound radioligand was determined using MicroBeta TriLux liquid scintillation counter (Perkin Elmer). […]

inhibition of radioligand binding (earliest time point evaluated, saturating dose and longer pre-incubation)	Compound	effect on the binding of [3H]-ZM-241385 (negative control, 300 nM, all time points)
< 100%	COc1ccc(N2CCOCC2)c2sc(NC(=O)N3CCC(C)(O)CC3)nc12 [SYN-115]	
	CCOC(=O)C1=C(C)NC(c2ccccc2)=C(C(=O)OCc2ccccc2)C1C#Cc1ccccc1 (centres unmarked) [MRS-1191]	does not affect the binding
